Test results from PubChem BioAssay (Tox21).
Where “and” joins values, the source holds several entries; their conditions need not be identical. Equal entries are not always repeated. Inconclusive results, whose numbers are uncertain, are shown with a selection of clear calls. A potency beside an inconclusive call is a rough fit, not a confirmed value. More than one record can exist for a structure, and the calls need not agree. Calls of active or inactive are those of the source. The call rests on the fitted dose curve; in most records, active means well fitted curve in the direction sought with a large enough effect in the repeat runs; inconclusive means weak or mixed curves; inactive means no such curve, though single readings can be large; an effect the other way counts as inactive or inconclusive.

assay: A CellTox Green Cytotoxicity Assay to monitor cytotoxicity in HepG2 cells - 32 hour (AID 1224883); conditions: CellTox Green fluorescence; series mostly up to 76.8 µM; further: nearly all actives have a fitted effect of over 50% in size
Outline: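 HepG2 cells were seeded together with the CellTox Green dye at 600 cells/well, left 5 h at 37 C/5% CO2, then given compounds in DMSO. Fluorescence from dye bound to dead-cell DNA was read repeatedly over 40 h of treatment at 37 C.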
On the % scale 0 is the no-effect control and ±100 the full control effect; potency means the concentration at half of the fitted maximal effect; tags describe the fitted curve by direction and shape.

Row | Compound | Potency | cytotoxicity increase
1 | CCCCOCC(C)OCC(C)O (stereo not given) | inactive | 
2 | Oc1cccc(O)c1 | inconclusive: 21.9 µM [activator, single point] | 
3 | C/C=C(\C)C(=O)OCc1ccccc1 | inactive | 
4 | Nc1nc(N)c2nc(CNc3ccc(C(=O)N[C@@H](CCC(=O)O)C(=O)O)cc3)cnc2n1 | inactive | 
5 | O=C1[C@@H]2[C@H]3CC[C@H](C3)[C@@H]2C(=O)N1CCCCN1CCN(c2ncccn2)CC1 | inconclusive: 26.8 µM [activator, single point] | 
6 | C/C=C(\C)C#N | inactive | 
7 | N[C@@H](CS)C(=O)O | inactive | 
8 | COc1cccc(CCc2ccccc2OCC(CN(C)C)OC(=O)CCC(=O)O)c1 (stereo not given) | inconclusive: 26.8 µM [activator, single point] | 
9 | CCCCCOC(=O)Nc1nc(=O)n([C@@H]2O[C@H](C)[C@@H](O)[C@H]2O)cc1F | inactive | 
10 | N=c1ccn2c(n1)O[C@H]1[C@H](O)[C@@H](CO)O[C@H]12 | inconclusive: 54.9 µM [activator, single point] | 
11 | CCC(C)CO (stereo not given) | active: 43.6 µM | 
12 | O[C@@H](c1cc(C(F)(F)F)nc2c(C(F)(F)F)cccc12)[C@H]1CCCCN1 | active: 19 µM | 
13 | CC(C)CCCCCCOC(=O)C1CCCCC1C(=O)OCCCCCCC(C)C (stereo not given) | inactive | 
14 | O=C(CCCN1CCC(O)(c2ccc(Cl)cc2)CC1)c1ccc(F)cc1 | inconclusive: 26.8 µM [activator, single point] | 
15 | C=C(C)C(=O)OCC(O)COc1ccc(C(C)(C)c2ccc(OCC(O)COC(=O)C(=C)C)cc2)cc1 (stereo not given) | inconclusive: 38.9 µM [activator, partial curve] | 
16 | CC(C)c1ccc2ncccc2c1 | inactive | 
17 | CCOC(=O)C1=C[C@]2(CC)CCCN3CCc4c(n1c1ccccc41)[C@@H]32 | inconclusive: 26.8 µM [activator, single point] | 
18 | CO/N=C1\CN(c2nc3c(cc2F)c(=O)c(C(=O)O)cn3C2CC2)CC1CN (stereo not given) | inactive | 

Row | Compound | Potency | cytotoxicity increase
19 | O=S(=O)(c1cccc2cnccc12)N1CCCNCC1 | inconclusive: 26.8 µM [activator, single point] | 
20 | CC(C)(O)c1coc(S(=O)(=O)NC(=O)Nc2c3c(cc4c2CCC4)CCC3)c1 | inconclusive: 61.6 µM [activator, single point] | 
21 | CC(S)C(C)S (stereo not given) | inactive | 
22 | CC(C)(CC(=O)O)C(=O)O | inconclusive: 61.1 µM [activator, partial curve, poor fit] | 
23 | Nc1nnnn1-c1ccccc1 | inconclusive: 10.7 µM [activator, single point] | 
24 | CN(C)CC/C=C1/c2ccccc2COc2ccc(CC(=O)O)cc21 | inactive | 
25 | Cc1oc(=O)oc1CN1CCN(c2cc3c(cc2F)c(=O)c(C(=O)O)c2n3C(C)S2)CC1 (stereo not given) | inconclusive: 0.601 µM [activator, partial curve] | 
26 | COCCCOCCCOC | inconclusive: 54.9 µM [activator, single point] | 
27 | O=NN(CCCl)C(=O)NCCCl | inconclusive: 5.35 µM [activator, full curve, poor fit] | 
28 | Cc1ccc(C=O)s1 | active: 38.9 µM | 
29 | CN1CCN2c3ccccc3Cc3ccccc3C2C1 (stereo not given) | inconclusive: 23.9 µM [activator, single point] | 
30 | c1ccsc1 | inactive | 
31 | C=Cc1ccccc1 | inactive | 
32 | CC(C)(C)C1(CCc2ccc(Cl)cc2)CO1 (stereo not given) | inconclusive: 54.9 µM [activator, single point] | 
33 | CCCCCCCC/C=C\CCCCCCCC(=O)N(C)CC(=O)O | inconclusive: 34.7 µM [activator, partial curve, poor fit] | 
34 | CO[Si](OC)(OC)c1ccccc1 | inactive | 
35 | CN(C)c1ccc(/C=C/c2ccc([N+](=O)[O-])cc2)cc1 |  | inactive: 16% [at 6.97 µM]
36 | CCCC(=O)OC(C)(C)Cc1ccccc1 | inconclusive: 54.9 µM [activator, partial curve, poor fit] | 

assay: A CellTox Green Cytotoxicity Assay to monitor cytotoxicity in HEK293 cells - 8 hour (AID 1224884); conditions: CellTox Green fluorescence; series mostly up to 76.8 µM; further: nearly all actives have a fitted effect of over 35% in size
Outline: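 HEK293 cells premixed with CellTox Green dye were seeded at 600 cells/well and left 5 h at 37 C/5% CO2 before pin transfer of 23 nL compound in DMSO. Fluorescence from dye bound to dead-cell DNA was read during 40 h treatment.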

Row | Compound | Potency
37 | Oc1cccc(O)c1 | inactive
38 | O[C@@H](c1cc(C(F)(F)F)nc2c(C(F)(F)F)cccc12)[C@H]1CCCCN1 | inconclusive: 26.8 µM [activator, single point]
39 | O=C(CCCN1CCC(O)(c2ccc(Cl)cc2)CC1)c1ccc(F)cc1 | inconclusive: 54.9 µM [activator, single point]
40 | Cc1oc(=O)oc1CN1CCN(c2cc3c(cc2F)c(=O)c(C(=O)O)c2n3C(C)S2)CC1 (stereo not given) | inactive
41 | CCCCCCCC/C=C\CCCCCCCC(=O)N(C)CC(=O)O | active: 38.9 µM
42 | CN(C)c1ccc(/C=C/c2ccc([N+](=O)[O-])cc2)cc1 | inconclusive: 1.97 µM [activator, partial curve, poor fit]

assay: qHTS RealTime-Glo MT Cell Viability Assay in HEK293 cells - 24 hour (AID 1224886); conditions: RealTime-Glo luminescence; series mostly up to 76.8 µM; further: nearly all actives have a fitted effect of over 50% in size; on activity change, negative = cytotoxicity: top concentration of the series differs between compounds
Outline: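 Nonlytic real-time viability readout: viable cells convert prosubstrate to NanoLuc substrate, giving luminescence proportional to live cell number. HEK293, 600 cells/well, compound added after 5 h, continuous culture at 37 C.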

Row | Compound | Potency | activity change, negative = cytotoxicity
43 | O=C(CCCN1CCC(O)(c2ccc(Cl)cc2)CC1)c1ccc(F)cc1 | active: 13.8 µM and active: 8.49 µM | 
44 | CCCCCCCC/C=C\CCCCCCCC(=O)N(C)CC(=O)O | inconclusive: 49 µM [cytotoxic, partial curve, poor fit] | 
45 | CN(C)c1ccc(/C=C/c2ccc([N+](=O)[O-])cc2)cc1 |  | inactive: -4.06% [at 6.97 µM]
